No constants are given. Whether binding was seen depends on the method and setting. Binding seen in cells or lysates may run through a third protein. Some binding calls cover weakened binding; strength is not graded here. For some assays here: Tags and fused reporters may be left off the sequences shown. Each block holds one binder with its values, some of them ahead of it.
How the values were obtained:
Myc-Cullin 4A = Myc-Cullin 4A (UniProt Q13619); assay: co-IP; 293T cells transfected with a tagged construct (Myc-Cullins or Flag-β-TRCP1 WT/R474A) or empty vector; endogenous MTSS1 blotted; 10 μM MG132 overnight before harvest; EBC lysis buffer (50 mM Tris pH 8.0, 120 mM NaCl, 0.5% NP-40); antibody overnight at 4 °C; five washes with NETN buffer
Myc-Cullin 1 [1] = molecular target: Myc-Cullin 1 (UniProt Q13616); assay: as above
Myc-Cullin 3 = Myc-Cullin 3 (UniProt Q13618); assay: as above
Myc-Cullin 5 = Myc-Cullin 5 (UniProt Q93034); assay: as above
Flag-β-TRCP1-R474A = Flag-β-TRCP1-R474A (UniProt Q9Y297); assay: as above
Myc-Cullin 2 = Myc-Cullin 2 (UniProt Q13617); assay: as above
Flag-β-TRCP1 (wild type) [2] = molecular target: Flag-β-TRCP1 (wild type) (UniProt Q9Y297); assay: as above
Myc-Cullin 1 [3] = molecular target: Myc-Cullin 1 (UniProt Q13616); assay: co-IP; Cullin constructs with ectopically expressed MTSS1 (Supplementary Figure S1A); cells and tags not shown
Flag-β-TRCP1 (wild type) [4] = molecular target: Flag-β-TRCP1 (wild type) (UniProt Q9Y297); assay: co-IP; HeLa cells co-transfected with Flag-β-TRCP1 and Myc-MTSS1 (WT or S322A); also in HeLa lines infected with shGFP, shCKIδ-A or shCKIδ-B; 10 μM MG132 overnight before harvest; EBC lysis buffer; five washes with NETN buffer
Flag-β-TRCP1 (wild type) [5] = molecular target: Flag-β-TRCP1 (wild type) (UniProt Q9Y297); assay: co-IP; 293T cells co-transfected with both tagged partners; 10 μM MG132 overnight before harvest; EBC lysis buffer; five washes with NETN buffer; for Myc-MTSS1 with Flag-β-TRCP1 lysates were also pre-treated with λ-phosphatase before the IP

Sequences of proteins named here, by UniProt entry; tags and fusion partners are left off. A change or cut given only in a name is not applied to a line headed by its entry. A line that says so, or that is headed by a name, gives the form on record, which may keep a tag or linker.
UniProt Q13619: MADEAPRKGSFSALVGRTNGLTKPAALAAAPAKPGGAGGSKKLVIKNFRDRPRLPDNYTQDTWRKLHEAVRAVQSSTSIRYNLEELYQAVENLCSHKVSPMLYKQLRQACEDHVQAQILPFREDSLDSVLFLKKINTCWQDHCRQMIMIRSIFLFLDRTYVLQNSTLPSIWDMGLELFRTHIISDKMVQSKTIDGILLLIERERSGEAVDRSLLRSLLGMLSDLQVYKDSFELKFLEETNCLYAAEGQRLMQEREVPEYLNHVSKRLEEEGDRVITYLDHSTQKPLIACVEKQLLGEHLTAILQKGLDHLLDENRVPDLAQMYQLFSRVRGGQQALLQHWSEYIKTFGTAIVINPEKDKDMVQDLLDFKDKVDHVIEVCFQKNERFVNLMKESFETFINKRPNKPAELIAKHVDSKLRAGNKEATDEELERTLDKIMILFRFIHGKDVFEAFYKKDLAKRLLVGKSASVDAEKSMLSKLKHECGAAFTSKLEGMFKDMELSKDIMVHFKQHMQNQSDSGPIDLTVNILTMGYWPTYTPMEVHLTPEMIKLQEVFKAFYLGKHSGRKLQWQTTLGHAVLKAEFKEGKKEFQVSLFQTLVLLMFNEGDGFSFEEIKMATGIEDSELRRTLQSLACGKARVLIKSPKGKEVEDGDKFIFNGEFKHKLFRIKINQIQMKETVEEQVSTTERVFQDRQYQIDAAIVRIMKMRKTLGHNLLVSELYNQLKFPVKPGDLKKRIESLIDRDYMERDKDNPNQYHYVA
UniProt Q13616: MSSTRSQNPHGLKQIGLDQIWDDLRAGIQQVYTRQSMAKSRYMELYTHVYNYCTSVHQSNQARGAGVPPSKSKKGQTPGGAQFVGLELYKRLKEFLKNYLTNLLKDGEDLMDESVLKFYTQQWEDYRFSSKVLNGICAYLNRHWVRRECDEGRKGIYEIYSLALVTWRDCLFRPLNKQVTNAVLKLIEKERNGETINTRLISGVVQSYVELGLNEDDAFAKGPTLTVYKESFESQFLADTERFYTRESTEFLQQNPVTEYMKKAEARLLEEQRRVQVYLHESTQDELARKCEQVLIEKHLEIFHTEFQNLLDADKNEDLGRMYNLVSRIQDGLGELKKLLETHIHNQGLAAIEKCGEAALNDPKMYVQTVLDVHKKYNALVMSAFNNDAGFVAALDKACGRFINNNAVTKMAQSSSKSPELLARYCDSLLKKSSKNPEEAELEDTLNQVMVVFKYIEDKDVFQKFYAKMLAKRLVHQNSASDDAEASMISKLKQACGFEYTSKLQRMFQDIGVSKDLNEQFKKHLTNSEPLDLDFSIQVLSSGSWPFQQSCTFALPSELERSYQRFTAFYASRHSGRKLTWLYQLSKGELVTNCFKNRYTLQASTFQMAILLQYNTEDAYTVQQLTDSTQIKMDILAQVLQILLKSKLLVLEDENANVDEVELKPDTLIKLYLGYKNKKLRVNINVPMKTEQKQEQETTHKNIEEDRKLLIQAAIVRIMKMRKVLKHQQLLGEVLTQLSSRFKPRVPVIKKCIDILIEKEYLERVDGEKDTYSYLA
UniProt Q93034: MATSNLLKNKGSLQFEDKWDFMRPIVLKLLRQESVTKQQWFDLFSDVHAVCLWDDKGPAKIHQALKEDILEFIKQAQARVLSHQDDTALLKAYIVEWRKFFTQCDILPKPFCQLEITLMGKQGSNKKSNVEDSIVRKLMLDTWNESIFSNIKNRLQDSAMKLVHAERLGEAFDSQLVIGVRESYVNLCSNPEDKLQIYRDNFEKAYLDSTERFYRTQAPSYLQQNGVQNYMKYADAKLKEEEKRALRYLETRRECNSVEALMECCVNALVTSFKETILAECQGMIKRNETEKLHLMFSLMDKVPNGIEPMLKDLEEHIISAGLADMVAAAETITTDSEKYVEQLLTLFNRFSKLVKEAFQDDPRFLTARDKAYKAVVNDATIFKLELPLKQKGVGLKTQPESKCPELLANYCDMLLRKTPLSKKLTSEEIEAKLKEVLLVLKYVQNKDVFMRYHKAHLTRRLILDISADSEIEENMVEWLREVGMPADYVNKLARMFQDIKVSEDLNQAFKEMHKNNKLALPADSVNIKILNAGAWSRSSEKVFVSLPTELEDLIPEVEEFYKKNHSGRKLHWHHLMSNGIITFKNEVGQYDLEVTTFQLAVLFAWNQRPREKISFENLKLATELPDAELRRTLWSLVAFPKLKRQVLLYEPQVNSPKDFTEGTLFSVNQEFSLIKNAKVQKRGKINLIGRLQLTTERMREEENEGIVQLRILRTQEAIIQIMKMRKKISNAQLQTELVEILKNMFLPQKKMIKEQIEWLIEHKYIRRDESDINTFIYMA
Flag-β-TRCP1-R474A (Q9Y297, form named): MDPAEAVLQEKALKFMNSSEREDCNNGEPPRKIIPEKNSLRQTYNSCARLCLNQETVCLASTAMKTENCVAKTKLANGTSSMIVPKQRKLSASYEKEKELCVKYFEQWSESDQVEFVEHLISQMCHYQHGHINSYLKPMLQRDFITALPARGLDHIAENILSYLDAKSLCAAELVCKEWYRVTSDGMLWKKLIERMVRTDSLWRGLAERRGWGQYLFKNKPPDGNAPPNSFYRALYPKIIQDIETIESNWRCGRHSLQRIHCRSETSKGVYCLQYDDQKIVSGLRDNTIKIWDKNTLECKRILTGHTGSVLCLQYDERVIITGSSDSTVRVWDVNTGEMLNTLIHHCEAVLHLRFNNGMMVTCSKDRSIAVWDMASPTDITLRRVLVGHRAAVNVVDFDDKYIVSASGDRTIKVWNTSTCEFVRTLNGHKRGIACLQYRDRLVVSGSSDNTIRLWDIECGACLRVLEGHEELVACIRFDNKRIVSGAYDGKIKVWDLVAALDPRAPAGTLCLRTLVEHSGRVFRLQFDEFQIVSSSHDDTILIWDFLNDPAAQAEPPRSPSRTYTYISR
Flag-β-TRCP1 (wild type) (Q9Y297, form named): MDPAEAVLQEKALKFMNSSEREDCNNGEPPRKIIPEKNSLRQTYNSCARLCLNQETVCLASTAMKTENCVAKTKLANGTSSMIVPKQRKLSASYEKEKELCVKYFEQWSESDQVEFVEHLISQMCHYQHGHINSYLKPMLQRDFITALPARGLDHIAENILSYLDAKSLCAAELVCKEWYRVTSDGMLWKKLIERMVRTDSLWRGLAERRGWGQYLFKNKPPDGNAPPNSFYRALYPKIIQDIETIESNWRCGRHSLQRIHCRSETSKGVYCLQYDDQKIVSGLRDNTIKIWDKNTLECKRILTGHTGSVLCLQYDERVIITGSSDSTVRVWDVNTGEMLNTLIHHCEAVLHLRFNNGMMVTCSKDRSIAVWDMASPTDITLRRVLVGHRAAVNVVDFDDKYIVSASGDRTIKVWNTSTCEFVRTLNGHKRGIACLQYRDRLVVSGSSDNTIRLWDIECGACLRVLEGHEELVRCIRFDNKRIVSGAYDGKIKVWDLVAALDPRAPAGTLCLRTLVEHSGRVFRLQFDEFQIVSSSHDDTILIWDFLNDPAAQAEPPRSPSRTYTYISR
UniProt Q13617: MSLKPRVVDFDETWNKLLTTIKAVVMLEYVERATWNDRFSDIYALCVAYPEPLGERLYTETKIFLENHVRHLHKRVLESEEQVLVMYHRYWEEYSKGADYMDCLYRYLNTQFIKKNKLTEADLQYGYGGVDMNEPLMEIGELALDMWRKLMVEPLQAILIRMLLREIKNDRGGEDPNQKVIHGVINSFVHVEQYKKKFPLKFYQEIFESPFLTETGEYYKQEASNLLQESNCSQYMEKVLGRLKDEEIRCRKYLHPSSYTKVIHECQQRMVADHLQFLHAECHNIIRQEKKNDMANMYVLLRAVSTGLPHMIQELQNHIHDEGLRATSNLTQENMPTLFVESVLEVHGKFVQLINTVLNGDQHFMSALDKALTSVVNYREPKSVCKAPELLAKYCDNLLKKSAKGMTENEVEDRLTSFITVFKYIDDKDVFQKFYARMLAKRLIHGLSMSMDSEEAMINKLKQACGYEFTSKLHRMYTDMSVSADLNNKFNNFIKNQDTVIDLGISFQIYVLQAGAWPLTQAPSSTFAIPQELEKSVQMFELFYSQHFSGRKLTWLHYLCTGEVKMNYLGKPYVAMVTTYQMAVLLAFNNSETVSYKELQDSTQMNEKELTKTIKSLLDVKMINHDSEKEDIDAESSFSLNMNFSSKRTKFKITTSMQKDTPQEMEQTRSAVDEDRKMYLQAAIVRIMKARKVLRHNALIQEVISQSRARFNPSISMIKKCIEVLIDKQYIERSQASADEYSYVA

binding (Myc-Cullin 4A): no binding
binding (Myc-Cullin 1 [1]): binds
binding (Myc-Cullin 3): no binding
binding (Myc-Cullin 5): no binding
binding (Flag-β-TRCP1-R474A): no binding
binding (Myc-Cullin 2): no binding
binding (Flag-β-TRCP1 (wild type) [2]): binds
B1: Metastasis suppressor 1 (MTSS1), endogenous (protein, UniProt O43312 1-755)
chain: MEAVIEKECSALGGLFQTIISDMKGSYPVWEDFINKAGKLQSQLRTTVVAAAAFLDAFQKVADMATNTRGGTREIGSALTRMCMRHRSIEAKLRQFSSALIDCLINPLQEQMEEWKKVANQLDKDHAKEYKKARQEIKKKSSDTLKLQKKAKKGRGDIQPQLDSALQDVNDKYLLLEETEKQAVRKALIEERGRFCTFISMLRPVIEEEISMLGEITHLQTISEDLKSLTMDPHKLPSSSEQVILDLKGSDYSWSYQTPPSSPSTTMSRKSSVCSSLNSVNSSDSRSSGSHSHSPSSHYRYRSSNLAQQAPVRLSSVSSHDSGFISQDAFQSKSPSPMPPEAPNQLSNGFSHYSLSSESHVGPTGAGLFPHCLPASRLLPRVTSVHLPDYAHYYTIGPGMFPSSQIPSWKDWAKPGPYDQPLVNTLQRRKEKREPDPNGGGPTTASGPPAAAEEAQRPRSMTVSAATRPGEEMEACEELALALSRGLQLDTQRSSRDSLQCSSGYSTQTTTPCCSEDTIPSQVSDYDYFSVSGDQEADQQEFDKSSTIPRNSDISQSYRRMFQAKRPASTAGLPTTLGPAMVTPGVATIRRTPSTKPSVRRGTIGAGPIPIKTPVIPVKTPTVPDLPGVLPAPPDGPEERGEHSPESPSVGEGPQGVTSMPSSMWSGQASVNPPLPGPKPSIPEEHRQAIPESEAEDQEREPPSATVSPGQIPESDPADLSPRDTPQGEDMLNAIRRGVKLKKTTTNDRSAPRFS

binding (Flag-β-TRCP1 (wild type) [4]): no binding
B4: Myc-S322A-MTSS1 (protein, UniProt O43312 1-755)
chain: MEAVIEKECSALGGLFQTIISDMKGSYPVWEDFINKAGKLQSQLRTTVVAAAAFLDAFQKVADMATNTRGGTREIGSALTRMCMRHRSIEAKLRQFSSALIDCLINPLQEQMEEWKKVANQLDKDHAKEYKKARQEIKKKSSDTLKLQKKAKKGRGDIQPQLDSALQDVNDKYLLLEETEKQAVRKALIEERGRFCTFISMLRPVIEEEISMLGEITHLQTISEDLKSLTMDPHKLPSSSEQVILDLKGSDYSWSYQTPPSSPSTTMSRKSSVCSSLNSVNSSDSRSSGSHSHSPSSHYRYRSSNLAQQAPVRLSSVSSHDAGFISQDAFQSKSPSPMPPEAPNQLSNGFSHYSLSSESHVGPTGAGLFPHCLPASRLLPRVTSVHLPDYAHYYTIGPGMFPSSQIPSWKDWAKPGPYDQPLVNTLQRRKEKREPDPNGGGPTTASGPPAAAEEAQRPRSMTVSAATRPGEEMEACEELALALSRGLQLDTQRSSRDSLQCSSGYSTQTTTPCCSEDTIPSQVSDYDYFSVSGDQEADQQEFDKSSTIPRNSDISQSYRRMFQAKRPASTAGLPTTLGPAMVTPGVATIRRTPSTKPSVRRGTIGAGPIPIKTPVIPVKTPTVPDLPGVLPAPPDGPEERGEHSPESPSVGEGPQGVTSMPSSMWSGQASVNPPLPGPKPSIPEEHRQAIPESEAEDQEREPPSATVSPGQIPESDPADLSPRDTPQGEDMLNAIRRGVKLKKTTTNDRSAPRFS

Continued, binder first:

B2: ectopically expressed MTSS1 (Supplementary Figure S1A) (protein, UniProt O43312 1-755)
chain: MEAVIEKECSALGGLFQTIISDMKGSYPVWEDFINKAGKLQSQLRTTVVAAAAFLDAFQKVADMATNTRGGTREIGSALTRMCMRHRSIEAKLRQFSSALIDCLINPLQEQMEEWKKVANQLDKDHAKEYKKARQEIKKKSSDTLKLQKKAKKGRGDIQPQLDSALQDVNDKYLLLEETEKQAVRKALIEERGRFCTFISMLRPVIEEEISMLGEITHLQTISEDLKSLTMDPHKLPSSSEQVILDLKGSDYSWSYQTPPSSPSTTMSRKSSVCSSLNSVNSSDSRSSGSHSHSPSSHYRYRSSNLAQQAPVRLSSVSSHDSGFISQDAFQSKSPSPMPPEAPNQLSNGFSHYSLSSESHVGPTGAGLFPHCLPASRLLPRVTSVHLPDYAHYYTIGPGMFPSSQIPSWKDWAKPGPYDQPLVNTLQRRKEKREPDPNGGGPTTASGPPAAAEEAQRPRSMTVSAATRPGEEMEACEELALALSRGLQLDTQRSSRDSLQCSSGYSTQTTTPCCSEDTIPSQVSDYDYFSVSGDQEADQQEFDKSSTIPRNSDISQSYRRMFQAKRPASTAGLPTTLGPAMVTPGVATIRRTPSTKPSVRRGTIGAGPIPIKTPVIPVKTPTVPDLPGVLPAPPDGPEERGEHSPESPSVGEGPQGVTSMPSSMWSGQASVNPPLPGPKPSIPEEHRQAIPESEAEDQEREPPSATVSPGQIPESDPADLSPRDTPQGEDMLNAIRRGVKLKKTTTNDRSAPRFS
binding (Myc-Cullin 1 [3]): binds

B3: Myc-MTSS1 (wild type) (protein, UniProt O43312 1-755)
chain: MEAVIEKECSALGGLFQTIISDMKGSYPVWEDFINKAGKLQSQLRTTVVAAAAFLDAFQKVADMATNTRGGTREIGSALTRMCMRHRSIEAKLRQFSSALIDCLINPLQEQMEEWKKVANQLDKDHAKEYKKARQEIKKKSSDTLKLQKKAKKGRGDIQPQLDSALQDVNDKYLLLEETEKQAVRKALIEERGRFCTFISMLRPVIEEEISMLGEITHLQTISEDLKSLTMDPHKLPSSSEQVILDLKGSDYSWSYQTPPSSPSTTMSRKSSVCSSLNSVNSSDSRSSGSHSHSPSSHYRYRSSNLAQQAPVRLSSVSSHDSGFISQDAFQSKSPSPMPPEAPNQLSNGFSHYSLSSESHVGPTGAGLFPHCLPASRLLPRVTSVHLPDYAHYYTIGPGMFPSSQIPSWKDWAKPGPYDQPLVNTLQRRKEKREPDPNGGGPTTASGPPAAAEEAQRPRSMTVSAATRPGEEMEACEELALALSRGLQLDTQRSSRDSLQCSSGYSTQTTTPCCSEDTIPSQVSDYDYFSVSGDQEADQQEFDKSSTIPRNSDISQSYRRMFQAKRPASTAGLPTTLGPAMVTPGVATIRRTPSTKPSVRRGTIGAGPIPIKTPVIPVKTPTVPDLPGVLPAPPDGPEERGEHSPESPSVGEGPQGVTSMPSSMWSGQASVNPPLPGPKPSIPEEHRQAIPESEAEDQEREPPSATVSPGQIPESDPADLSPRDTPQGEDMLNAIRRGVKLKKTTTNDRSAPRFS
binding (Flag-β-TRCP1 (wild type) [4]): binds
binding (Flag-β-TRCP1 (wild type) [5]): binds

From paper PMC3926831
